Measurements taken from the BET-seq Pho4 binding data (Le et al. 2018).
The list shows a part of the results. Values were computed here from the reads of four pooled replicates and scatter widely.

target: T1, Pho4 (S. cerevisiae) (UniProt P07270); assay: relative binding free energy (BET-seq); higher = weaker binding; conditions: reference: library average
T1 sequence: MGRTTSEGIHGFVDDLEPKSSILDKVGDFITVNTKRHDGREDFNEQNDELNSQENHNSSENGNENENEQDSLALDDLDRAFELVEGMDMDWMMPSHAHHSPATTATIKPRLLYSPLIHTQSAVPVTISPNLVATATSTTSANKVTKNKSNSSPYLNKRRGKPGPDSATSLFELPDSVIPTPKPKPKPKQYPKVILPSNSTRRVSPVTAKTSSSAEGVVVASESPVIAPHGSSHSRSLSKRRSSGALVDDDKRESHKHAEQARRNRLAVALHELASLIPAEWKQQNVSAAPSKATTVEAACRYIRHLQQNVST

Sequence | relative binding free energy [kcal/mol]
TGGGACACGTGTATCG | -0.16
GTGACCACGTGGAGTT | -0.01
AAATTCACGTGGTTAT | 0.04
GGCTTCACGTGCGGGA | 0.16
GTGGTCACGTGACATG | 0.12
ATGGGCACGTGACGGT | -0.05
ATGGCCACGTGTAGGT | -0.14
AATGACACGTGGATGG | -0.15
CGGGACACGTGTGAGG | -0.08
GGTTTCACGTGCGGCG | 0.34
TGGGGCACGTGATTGT | 0.06
GGAGGCACGTGGGGTT | -0.23
TAAATCACGTGTGGAG | 0.15
CTCTGCACGTGGTGAG | 0.03
CAAGTCACGTGATTGT | 0.34
GGGAACACGTGTGCGT | 0.01
ATATGCACGTGAGTGT | 0.15
GGGTACACGTGATGGG | 0.29
ATTGGCACGTGTACTT | -0.05
TCGTACACGTGGGTTA | -0.17
TTGACCACGTGGCGGG | -0.08
TTGATCACGTGGTAGC | 0.07
GTAGTCACGTGCTGAG | 0.11

Sequence | relative binding free energy [kcal/mol]
AAATGCACGTGCTGGT | -0.12
AACGGCACGTGGGATT | -0.2
GGCGGCACGTGTTTTG | 0.1
TATTACACGTGGTTAA | -0.06
GGACGCACGTGCGGGG | -0.13
TTATACACGTGATGTC | 0.17
ATTTCCACGTGTAGTT | 0
TAGGGCACGTGTTAAG | -0.05
TTGACCACGTGAGGGT | 0.17
TTGGCCACGTGTATGG | -0.11
AAAGGCACGTGGTCAT | -0.01
TTTATCACGTGCGGGG | 0.13
TTATTCACGTGACTGT | 0.3
GAAGGCACGTGGCGTG | -0.19
TTGGGCACGTGTCCGG | -0.16
GGTGGCACGTGCAATG | 0.04
ACGAGCACGTGGTGTT | -0.29
TGGTACACGTGTAGAG | 0.16
TAATACACGTGGGTAT | -0.07
GGTGCCACGTGTGGGC | 0.01
AAGGACACGTGTTGGG | 0.05
TTCGACACGTGTGTGT | 0.07
GTGTTCACGTGGAGAG | 0.22

Sequence | relative binding free energy [kcal/mol]
GCTTTCACGTGGTGGC | 0.26
TCCGTCACGTGGTGGA | 0.15
GTGCGCACGTGTGGCT | 0.02
AAGTGCACGTGTGATA | -0.02
TACAACACGTGGTTGG | 0.08
AGTGACACGTGTGACT | 0.18
GATGTCACGTGCGTAT | 0.07
TGTTCCACGTGTGTCT | 0.1
CGAAGCACGTGGGTGA | -0.17
GTGTACACGTGAGATT | 0.4
GTTCTCACGTGCGGGC | 0.38
AATAACACGTGCGGGG | -0.02
AGCGTCACGTGTAGGG | 0.01
TTGGACACGTGCGGAT | 0.01
AAGATCACGTGTGTTT | 0.24
GCTGCCACGTGGGAGG | -0.22
CGGTTCACGTGGGGTA | 0.08
GTATTCACGTGGTAGA | 0.23
ATGGTCACGTGGATTC | 0.17
AGTACCACGTGTGGTT | 0.01
GTGGGCACGTGAGGGA | 0.28
GCCATCACGTGGTGGT | 0.08
ATCGTCACGTGGTTGG | 0.11

Sequence | relative binding free energy [kcal/mol]
GTTGGCACGTGAGGTA | 0.13
TGTGTCACGTGCAGTA | 0.09
GGGTTCACGTGTCCGG | 0.3
GTCGTCACGTGATTAG | 0.39
GGTTACACGTGTGCTA | 0.11
TATTGCACGTGGCAAG | -0.14
TAATGCACGTGCGTAG | 0.02
TTGGGCACGTGGCACG | -0.25
TTCTGCACGTGTAGTA | 0.1
TGGTGCACGTGAAATT | 0.46
TCGGGCACGTGCGTTT | -0.01
AAGCTCACGTGTGTAG | 0.27
AGGTACACGTGGTCAT | 0.01
GTACACACGTGTGTGG | 0.04
TGGCACACGTGTTGAG | 0.08
TTATTCACGTGGTGAG | 0.3
TCTAACACGTGAGGTT | 0.22
GGTGTCACGTGTAAAT | 0.28
GGGGGCACGTGTTACG | -0.17
CATGACACGTGGAGGT | 0.16
ACATGCACGTGGTTAT | -0.04
GGGATCACGTGTATGA | 0.2
TGCGTCACGTGGAGGG | -0.02

Sequence | relative binding free energy [kcal/mol]
TGGGTCACGTGTAAGA | 0.24
GTTAGCACGTGTCGGT | 0.09
TTTGTCACGTGTAGCT | 0.19
ATGGTCACGTGTTGAA | -0.01
CATTGCACGTGTGTAG | 0.05
ATGGTCACGTGAGTAG | 0.33
GTGCTCACGTGGGGAT | 0.16
TGTCGCACGTGTTTAT | -0.1
TTAGACACGTGAGGGA | 0.26
ATGCACACGTGATGTG | 0.16
TGTTACACGTGGCTTT | -0.02
AGTGCCACGTGCGGTG | -0.22
CGTGGCACGTGAGAGT | 0.21
GAGTGCACGTGAGCTG | 0.18
CGGGACACGTGGTTGG | -0.11
TGTATCACGTGCGGAT | -0.01
TGCGTCACGTGTGCGT | -0.01
CTAAGCACGTGTGTGG | -0.16
GGTACCACGTGGGAGT | -0.19
TTTGCCACGTGGGGTA | -0.26
TTATACACGTGTTATG | 0.07
TGGGTCACGTGGTACA | -0.08
AGGTGCACGTGCGGAA | -0.12
